Results as given in publication PMC7492610.
No constants are given. Whether binding was seen depends on the method and setting. In cells and extracts the contact can be indirect. Some results given as binding are weak or reduced against the parent protein; the word gives no strength. For part of these data: Sequences can lack the tags named with a protein.

Amino acid sequences for entries named in this document (tags omitted). Residues count along the entry.
UniProt O60260: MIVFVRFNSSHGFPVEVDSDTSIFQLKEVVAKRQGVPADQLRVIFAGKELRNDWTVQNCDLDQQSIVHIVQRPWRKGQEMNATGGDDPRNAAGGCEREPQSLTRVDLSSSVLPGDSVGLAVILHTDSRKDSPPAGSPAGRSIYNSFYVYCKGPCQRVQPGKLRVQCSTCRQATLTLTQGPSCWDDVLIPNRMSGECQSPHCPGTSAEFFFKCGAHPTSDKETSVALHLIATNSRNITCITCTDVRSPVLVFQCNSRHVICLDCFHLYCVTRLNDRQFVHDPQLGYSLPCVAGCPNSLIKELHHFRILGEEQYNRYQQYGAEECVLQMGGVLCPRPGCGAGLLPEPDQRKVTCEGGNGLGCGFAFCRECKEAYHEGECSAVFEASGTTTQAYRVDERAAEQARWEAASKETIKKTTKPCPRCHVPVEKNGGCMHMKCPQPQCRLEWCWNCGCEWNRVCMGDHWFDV
UniProt Q9BXM7, residues 78-581: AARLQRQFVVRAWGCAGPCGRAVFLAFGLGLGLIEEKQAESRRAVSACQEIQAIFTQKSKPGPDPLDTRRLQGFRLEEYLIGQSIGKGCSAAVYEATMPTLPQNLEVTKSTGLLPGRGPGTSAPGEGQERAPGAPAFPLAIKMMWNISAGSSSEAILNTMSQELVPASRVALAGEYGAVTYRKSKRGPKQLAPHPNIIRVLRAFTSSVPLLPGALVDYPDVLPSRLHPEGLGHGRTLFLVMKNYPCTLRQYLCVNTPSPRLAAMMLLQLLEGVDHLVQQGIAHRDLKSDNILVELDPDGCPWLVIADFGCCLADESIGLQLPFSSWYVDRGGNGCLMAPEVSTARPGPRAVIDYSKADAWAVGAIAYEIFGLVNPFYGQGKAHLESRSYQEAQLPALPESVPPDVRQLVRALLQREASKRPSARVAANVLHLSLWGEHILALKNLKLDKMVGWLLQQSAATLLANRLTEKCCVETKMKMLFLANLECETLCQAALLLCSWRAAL

Tests used:
Flag-MDA5 = molecular target: T1, Flag-MDA5 (UniProt Q9BYX4); experiment: co-IP; 293T cells co-transfected, 24 h, untreated or treated with CCCP (10 uM) for 12 h; lysis in 50 mM Tris-HCl pH 7.6, 150 mM NaCl, 0.5% Triton-X-100; anti-Flag agarose at 4 C overnight, washed four times with RIPA buffer; immunoblot
T1 sequence: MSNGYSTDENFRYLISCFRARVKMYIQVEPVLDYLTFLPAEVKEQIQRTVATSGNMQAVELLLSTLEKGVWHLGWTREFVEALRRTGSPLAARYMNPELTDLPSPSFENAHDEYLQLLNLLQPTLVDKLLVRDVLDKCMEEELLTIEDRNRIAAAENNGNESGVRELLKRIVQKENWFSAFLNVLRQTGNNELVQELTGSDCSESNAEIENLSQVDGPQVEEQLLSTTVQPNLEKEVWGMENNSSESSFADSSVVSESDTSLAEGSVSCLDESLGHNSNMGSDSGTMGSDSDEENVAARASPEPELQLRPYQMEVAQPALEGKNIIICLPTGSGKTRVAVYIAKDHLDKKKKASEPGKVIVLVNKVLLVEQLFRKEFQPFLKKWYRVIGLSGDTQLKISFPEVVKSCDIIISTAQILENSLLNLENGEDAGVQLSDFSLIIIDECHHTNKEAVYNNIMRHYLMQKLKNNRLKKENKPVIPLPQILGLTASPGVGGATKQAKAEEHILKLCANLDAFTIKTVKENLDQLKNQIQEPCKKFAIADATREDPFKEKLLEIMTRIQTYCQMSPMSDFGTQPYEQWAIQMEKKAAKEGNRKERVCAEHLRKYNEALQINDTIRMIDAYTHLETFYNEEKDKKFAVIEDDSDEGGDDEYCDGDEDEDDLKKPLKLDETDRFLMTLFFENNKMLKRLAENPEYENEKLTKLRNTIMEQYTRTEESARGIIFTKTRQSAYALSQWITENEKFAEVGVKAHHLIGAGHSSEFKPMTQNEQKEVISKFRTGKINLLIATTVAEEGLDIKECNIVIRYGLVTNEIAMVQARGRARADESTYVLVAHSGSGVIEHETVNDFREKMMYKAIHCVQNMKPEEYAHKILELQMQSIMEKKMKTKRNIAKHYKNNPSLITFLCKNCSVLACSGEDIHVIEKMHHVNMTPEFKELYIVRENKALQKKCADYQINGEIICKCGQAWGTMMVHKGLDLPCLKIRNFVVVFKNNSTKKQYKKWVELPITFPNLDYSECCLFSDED

Flag-RIG-I = molecular target: T2, Flag-RIG-I (UniProt O95786); experiment: as above
T2 sequence: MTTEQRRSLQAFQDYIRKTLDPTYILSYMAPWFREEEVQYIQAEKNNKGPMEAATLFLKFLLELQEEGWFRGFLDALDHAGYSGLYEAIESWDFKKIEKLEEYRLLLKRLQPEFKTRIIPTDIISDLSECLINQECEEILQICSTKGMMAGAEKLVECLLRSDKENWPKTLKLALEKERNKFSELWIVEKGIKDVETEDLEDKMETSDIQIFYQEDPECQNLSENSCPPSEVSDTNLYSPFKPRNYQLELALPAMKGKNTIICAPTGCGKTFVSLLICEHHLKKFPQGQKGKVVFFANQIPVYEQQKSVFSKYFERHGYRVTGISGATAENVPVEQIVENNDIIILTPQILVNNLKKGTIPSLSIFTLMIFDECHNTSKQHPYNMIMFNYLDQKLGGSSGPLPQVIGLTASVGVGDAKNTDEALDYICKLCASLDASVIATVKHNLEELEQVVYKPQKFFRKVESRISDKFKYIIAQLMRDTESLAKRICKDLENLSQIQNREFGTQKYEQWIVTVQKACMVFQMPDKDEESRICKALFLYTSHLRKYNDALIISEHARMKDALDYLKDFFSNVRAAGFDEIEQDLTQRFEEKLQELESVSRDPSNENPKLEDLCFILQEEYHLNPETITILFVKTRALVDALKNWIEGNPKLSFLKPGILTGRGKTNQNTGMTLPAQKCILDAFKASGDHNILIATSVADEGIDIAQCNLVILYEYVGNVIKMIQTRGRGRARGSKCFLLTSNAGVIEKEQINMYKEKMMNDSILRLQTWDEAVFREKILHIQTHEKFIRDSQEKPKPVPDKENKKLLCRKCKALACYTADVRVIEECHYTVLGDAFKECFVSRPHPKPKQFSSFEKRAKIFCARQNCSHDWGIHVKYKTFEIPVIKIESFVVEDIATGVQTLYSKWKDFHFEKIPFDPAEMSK

[1] = molecular target: T3, endogenous RIG-I (human (endogenous in HEK293)) (UniProt O95786); experiment: co-IP; endogenous proteins; HEK293 cells stimulated with SeV for 10 h, whole cell lysates immunoprecipitated with indicated antibodies; immunoblot
T3 sequence: T2 sequence

[2] = molecular target: T4, endogenous MDA5 (human (endogenous in HEK293)) (UniProt Q9BYX4); experiment: as above
T4 sequence: T1 sequence

binding (Flag-MDA5)	binding (Flag-RIG-I)	binding [1]	binding [2]	Substance
binds	binds	–	–	Myc-Parkin (from UniProt O60260 1-465) (enzyme)
–	–	binds	binds	endogenous Parkin (from UniProt O60260 1-465) (enzyme)
no binding	no binding	–	–	Myc-PINK1 (from UniProt Q9BXM7 78-581) (enzyme)
